For orientation: % Inhibition means the relative decrease from the control value, in per cent.

About 540 (0.36%) of roughly 150,000 compounds showed an effect of 50% or more. Some of the results follow.

This test concerns Plasmodium falciparum. The test can be described thus: Primary screen in NF54 nanoGlo assay, in single point, at 2uM, 72h; a lower Z score goes with more inhibition. Type of test: functional, Erythrocyte. The note with it: timepoint 72 hour.
Turning to `Cc1ncsc1C(=O)NC[C@H]1CCCN1c1ncccn1`, the “% Inhibition” value was -6% and the Z score was 0.64.
In the same order, the values of `Cc1nnc(-c2csc(S(=O)(=O)NCc3ccc4c(c3)OCO4)c2)o1` are 3% and -0.34.
The like results for `CC[C@](C)(NC(=O)c1ccccn1)C(=O)NC1CCCC1` were, in that order, -10% and 1.97.
In the case of `COc1nc(C)cc(NCC2(n3cccn3)CC2)n1`, the “% Inhibition” value was -4% and the Z score is 0.78.
For the compound `COC(=O)C1CCN2C(=O)N(c3ccc(C)nc3C)C(=O)C2C1` (centres undefined), the “% Inhibition” value is recorded as -16% and the Z score was 1.81.
For `COC(=O)N(C)CC(=O)Nc1cc(Cl)c(Cl)cc1Cl`, the “% Inhibition” value was -9% and the Z score came to 1.16.
In the same order, the values of `COc1ccc(S(=O)(=O)N2CCN(C)C3(CCN(C)CC3)C2)cc1Cl` are -25% and 2.54.
The like results for `CCCC(CCC)C(=O)Nc1cc(Cl)ccc1OC` were, in that order, -1% and 0.14.
The like results for `CC(C)CNC(=O)N1CCC[C@H](N(CCN2CCOCC2)S(C)(=O)=O)C1` were, in that order, -4% and 0.55.
In the case of `Cc1cc(-c2nnn(CC(=O)N3CCCC3)n2)ccc1F`, the “% Inhibition” value is -11% and the Z score came out at 1.41.
The like results for `O=C(Nc1ccnn1C1CCCC1)c1ccc(Br)o1` were, in that order, -12% and 1.12.
In the case of `O=C(NCc1c(O)cccc1F)N[C@H]1CC12CCOCC2`, the “% Inhibition” value is on record as -6% and the Z score is recorded as 0.96.
As to `CCN(C(=O)c1cc2sccc2[nH]1)[C@H]1COC[C@@H]1O`, the “% Inhibition” value was -11% and the Z score was determined as 1.6.
For `O=C(c1ccnc(N2CCn3nc(CO)cc3C2)c1)N1CCOCC1`, the “% Inhibition” value is -26% and the Z score came out at 2.26.
In the same order, the values of `COC(=O)CNC(=O)CCN(C)[C@@H](C)c1ccccc1F` are -16% and 3.
On to `Cc1nc(C(=O)NCCc2ccccc2N2CCOCC2)c(C)o1`, for which the “% Inhibition” value was found to be 0% and the Z score was -0.01.
On to `C=C(C)CN(CC)C(=O)CN1CCO[C@@H](CN(C)C)C1`, for which the “% Inhibition” value is listed as -14% and the Z score was found to be 1.77.
For `FC(F)(F)c1cnc(N2CCN(CCc3cnccn3)CC2)s1`, the “% Inhibition” value is given as -2% and the Z score is on record as 0.27.
In the same order, the values of `Cc1nsc(NCc2ccc3c(c2)nc(C)n3C2CC2)n1` are -12% and 1.31.
Take `COc1cccc(C2=Nc3cccnc3N(CC(=O)Nc3ccccc3Cl)C(=O)C2)c1`: the “% Inhibition” value came to 30% and the Z score is reported as -3.4.
The like results for `Cc1ccccc1C(=O)N(CCC(=O)O)CC(C)C` were, in that order, 2% and -0.29.
In the same order, the values of `O=C1NCCCC[C@@H]1NC(=O)N(CC1CCCCC1)C1CC1` are -1% and 0.11.
On to `Cc1cc(N(C)Cc2nc3c(o2)CCCC3)n[nH]1`, for which the “% Inhibition” value is -10% and the Z score came to 1.72.
For `CC(C)OCCCNC(=O)c1ncccc1Br`, the “% Inhibition” value is listed as -7% and the Z score came to 0.68.
As to `O=C(Cc1cccs1)N[C@@H](Cc1cccc(F)c1)c1cccc(F)c1`, the “% Inhibition” value is 1% and the Z score is -0.16.
The like results for `Cc1ccc(C)c(NC(=O)N2CCC[C@H](N(CCN3CCCC3)C(=O)C3CCC3)C2)c1` were, in that order, 0% and 0.02.
Turning to `CCCC[C@H]1C(=O)N(C)CCN1S(=O)(=O)c1cc(-c2cnc(C)o2)ccc1C`, the “% Inhibition” value is listed as -3% and the Z score is 0.51.
In the same order, the values of `O=C(Cn1ccnc1)N1CCC(c2nc3c(s2)CCC3)CC1` are -2% and 0.31.
In the same order, the values of `N#Cc1ccc(O)c(NC(=O)c2cccc3cc[nH]c23)c1` are 43% and -3.9.
In the same order, the values of `Clc1ccc2nc(-c3ccccn3)nc(-c3ccccc3)c2c1` are 8% and -1.03.
As to `O=C(c1ccc[nH]1)N1CC[C@H]2[C@H](CCC(=O)N2CCc2c[nH]cn2)C1`, the “% Inhibition” value is listed as -3% and the Z score came out at 0.66.
In the same order, the values of `O=C(Nc1ccc(Cc2ccccc2)cc1)N1C[C@H](c2ccccc2)C(c2ccc(Cl)cc2)=N1` are -31% and 3.62.
Turning to `Cc1c(C(=O)NS(=O)(=O)C2C[C@@H]3CC[C@H]2C3)nnn1-c1cnn(C)c1` (some centres undefined), the “% Inhibition” value was -1% and the Z score is reported as 0.22.
As for `CN1CCC(N2CCOC[C@H]2c2nc(-c3ccccc3)c[nH]2)CC1`, the “% Inhibition” value is reported as 18% and the Z score is recorded as -2.08.
Take `CC(C)c1nnc(CN2CCCN(S(=O)(=O)N(C)C)CC2)s1`: the “% Inhibition” value was -3% and the Z score turned out to be 0.4.
The like results for `Cc1ccc(C(=O)N2CCC3(CC2)C[C@@H](O)CCO3)cc1` were, in that order, -6% and 0.98.
Regarding `COCC(=O)Nc1cc(C(=O)N2CCC(Oc3ccccc3F)CC2)c2c(c1)nc(C1CCC1)n2C`, the “% Inhibition” value is -10% and the Z score was found to be 1.87.
As to `CC(C)[C@H](NC(=O)NCc1ccccc1)C(=O)N1CCc2sccc2C1`, the “% Inhibition” value was -21% and the Z score is on record as 2.77.
The like results for `CCN(C(=O)c1cc(O)n(C)n1)[C@H]1CCCc2cccnc21` were, in that order, -2% and 0.32.
For `CC(C)C[C@@H](CO)N(C)C(=O)c1cn2ccnc2s1`, the “% Inhibition” value is listed as 3% and the Z score is reported as -0.69.
Take `CCc1nc(CN2C(=O)N[C@](C)(c3ccc(C(N)=O)cc3)C2=O)no1`: the “% Inhibition” value was -5% and the Z score came to 1.01.
In the same order, the values of `CC(C)n1cc2cc(C(=O)NCCc3ccncc3)sc2c1` are 0% and -0.08.
